Whole data set: some 33,000 sequences, median “E-score (-0.5 to 0.5)” near -0.013, cut for the highest 2% near 0.3. This is one part of the list.
The sequences below were run against T1, Msn1 (UniProt P22148) (assay: PBM E-score (8-mer binding enrichment) (E-score (-0.5 to 0.5)); higher = stronger / more preferred TF binding; most listed sequences are background and not binding sites). Conditions: protein concentration: 200 nM; construct: GST-full length.
T1 sequence: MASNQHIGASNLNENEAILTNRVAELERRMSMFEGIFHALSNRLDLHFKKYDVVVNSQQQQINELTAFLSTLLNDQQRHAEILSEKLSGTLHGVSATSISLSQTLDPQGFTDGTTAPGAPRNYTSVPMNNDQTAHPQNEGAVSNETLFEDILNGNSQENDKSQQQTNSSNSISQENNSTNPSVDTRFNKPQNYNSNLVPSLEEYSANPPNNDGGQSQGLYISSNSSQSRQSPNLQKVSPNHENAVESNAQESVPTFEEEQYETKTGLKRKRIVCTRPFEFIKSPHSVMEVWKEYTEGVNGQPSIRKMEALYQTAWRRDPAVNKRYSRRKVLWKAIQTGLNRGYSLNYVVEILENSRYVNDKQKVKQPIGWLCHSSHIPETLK
Procedure, shortened: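 Masliner-normalised scans of fluorescent anti-GST signal were the basis for scoring. That signal came from GST-tagged yeast transcription factors applied at about 100-200 nM to double-stranded universal all-10-mer Agilent arrays on fresh or once-stripped slides. Each ungapped eight-base word, pooled with its reverse complement, received an E-score from the Universal PBM Analysis Suite.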

Row | Sequence | PBM E-score
1 | TACCGTCA | -0.0494
2 | AAAGTTGC | -0.208
3 | TAGCTCAA | -0.0254
4 | ACCGTTTG | 0.129
5 | AGGGGTCC | -0.302
6 | AGGGCCCC | -0.276
7 | CGCCCAGA | -0.0991
8 | TGAGCGCA | -0.156
9 | CCTGGCGA | -0.15
10 | CACGTCAA | 0.0835
11 | ATATCCAT | 0.0453
12 | AATTGGTC | 0.15
13 | AGATCTAT | 0.0466
14 | AGCGTGAC | 0.0296
15 | CAGGAACC | -0.182
16 | CTCTTCCC | -0.153
17 | AGGAGGAA | -0.187
18 | ATACTGGG | -0.0202
19 | AACTAGTC | 0.116
20 | AACGATCG | 0.13
21 | ACCCAAGT | 0.0153
22 | ACGCCATG | 0.0667
23 | AAGCTTGG | -0.0757
24 | AACCACCT | -0.00544
25 | CGCTGGTA | -0.155

Row | Sequence | PBM E-score
26 | GCCAGGCA | -0.0442
27 | CACCCTTA | 0.0165
28 | ACGTCAAA | 0.164
29 | GTATGATA | 0.2
30 | AACAACGC | 0.0709
31 | CGGTCCAG | -0.144
32 | ATATATGA | 0.155
33 | AGCCTAAT | -0.00341
34 | AATATTAA | 0.318
35 | GACGTACC | -0.0232
36 | ACGCTAGG | -0.203
37 | CTTTCGTA | 0.0777
38 | ATTAAAGG | 0.0633
39 | AGCTCTTG | -0.0733
40 | CCCTTACC | -0.181
41 | ACGAACCG | 0.0562
42 | AGTGCTGA | -0.125
43 | ACGGCGGC | -0.162
44 | CGGGTACC | -0.07
45 | ATCCGTCC | 0.175
46 | GAAACTTC | -0.0245
47 | ATTTCCAC | 0.106
48 | ACTCTAAA | 0.0135
49 | CTGAAGTC | -0.0347
50 | ATTAAGTC | 0.197

Row | Sequence | PBM E-score
51 | CATAATCG | 0.192
52 | CTACCGCA | -0.00604
53 | AAGAGGTG | 0.04
54 | ACTACTAG | 0.176
55 | AGGTATTA | 0.0178
56 | GCTTGCCA | -0.131
57 | AGCGCGCT | -0.0376
58 | TCGGCGAA | 0.103
59 | AGGTGAGG | -0.16
60 | GCCCTGCC | -0.296
61 | CCCGGCAA | 0.051
62 | AGAAGTCC | 0.164
63 | CCGGCCGG | 0.124
64 | CTGAACGC | -0.138
65 | CAATACGC | 0.0416
66 | GGTGACAA | 0.322
67 | GCATCACC | -0.217
68 | TTCCTAAA | 0.0739
69 | AGATAATG | 0.0408
70 | CGTTTGCC | 0.107
71 | ATGAGGAC | 0.145
72 | GCCATCGC | -0.234
73 | ATTATTAA | 0.18
74 | CACGCCGG | 0.0797
75 | TGAAAAAA | 0.221

Row | Sequence | PBM E-score
76 | ACGCGCGG | -0.0102
77 | ACAATCGA | 0.159
78 | TATACTGA | 0.262
79 | ACAAAGTG | 0.0484
80 | CTCATAGA | 0.0272
81 | CACATGGA | 0.0113
82 | TGATTCAA | -0.0386
83 | CAACCGGG | -0.0889
84 | ATGAATAC | -0.0655
85 | TCGCCCAA | -0.0031
86 | TGTGATAA | 0.0376
87 | AAGTGCAA | 0.0957
88 | AAACATGG | 0.0412
89 | ATGCACAA | 0.0261
90 | AGGGCAGC | -0.185
91 | GTTGTAAA | -0.135
92 | ATATGATG | 0.113
93 | TCCTAAGA | 0.0389
94 | GCTTGATA | 0.051
95 | ACCAGCGC | -0.136
96 | GAATAAAA | 0.238
97 | CGTCGGTA | -0.164
98 | AGTCACCC | -0.015
99 | ATATCGGG | 0.153
100 | AATGAAGT | 0.054

Row | Sequence | PBM E-score
101 | TCAAATGA | -0.0369
102 | ACGTGTAG | -0.134
103 | ACCACGTG | 0.0353
104 | GCATCCCC | -0.145
105 | GCATACAA | 0.206
106 | AACGGGAA | 0.118
107 | ACGGCGAG | 0.0597
108 | GGACTCTA | -0.214
109 | CACACGTA | -0.0851
110 | CCGTTGCG | -0.0164
111 | GAGAAACA | 0.0761
112 | CGGAGGGA | 0.0529
113 | ATCCCTAA | -0.222
114 | CGGCCAAC | -0.154
115 | GCAGCGGC | -0.176
116 | AAAGCCGC | 0.00017
117 | GAGTGTGA | -0.051
118 | ACCGTCCT | -0.0742
119 | CCTTGGAG | -0.133
120 | AACGATTG | 0.0949
121 | AAATTGGA | 0.205
122 | ACCAGGTA | -0.207
123 | AGGTAGTG | -0.158
124 | ACGGTTAT | -0.0602
125 | CAATGAGA | -0.156

Row | Sequence | PBM E-score
126 | AGTGGCCG | -0.278
127 | CGTGACCC | 0.0216
128 | GTTTCTTA | 0.0545
129 | CCCATCGC | -0.249
130 | GAATTACA | 0.0111
131 | GCGGGAAA | -0.0328
132 | ATGTCGGA | 0.253
133 | AGATCGAA | 0.0194
134 | GGCTGAAA | 0.00836
135 | CTCTCGCC | -0.191
136 | TCTAGAGA | -0.17
137 | CGTATTAG | 0.13
138 | AGATAGTC | -0.0911
139 | AAAAGGTT | -0.111
140 | ATTCATCC | 0.0917
141 | CAGTGATC | -0.0606
142 | CCCTGAGG | -0.159
143 | CCATAATA | -0.0421
144 | ATCCAGTG | 0.0645
145 | CCGCGTTA | -0.00964
146 | GCCGGACA | 0.357
147 | ACGTCGGG | -0.101
148 | GCGCTCGA | 0.0163
149 | TAATTCTA | 0.193
150 | CTCCTGGA | -0.185

Row | Sequence | PBM E-score
151 | CTCAGGAA | 0.00021
152 | GATTAGGA | 0.0838
153 | CTGAGACA | 0.319
154 | TTAAGCAA | 0.119
155 | AGTTTAAG | 0.0278
156 | AGGAACCT | -0.03
157 | ACTCGCTC | 0.00656
158 | ATAGGCAA | -0.12
159 | ATGTTATA | -0.0164
160 | AGCCCATA | -0.197
161 | GACTGTGA | -0.0953
162 | CTAGATGC | -0.0777
163 | AGGATTCC | -0.0174
164 | AGCTCTTA | -0.0201
165 | GGCCGCCA | -0.261
166 | CCATCTCC | -0.169
167 | CGACTCGA | -0.0191
168 | AGGCTTAA | 0.0111
169 | AAATGAAA | 0.305
170 | CGTCGGAA | 0.078
171 | ACGAGGGA | -0.0299
172 | CGCAAAGC | 0.0415

Source: the supplement of paper PMC3334620
